For assay [1], the target named is TAP-Spa2 (S. cerevisiae) (UniProt P23201). Put plainly: co-IP; yeast cell extract of cells in cytokinesis (90 min after G1 release, YPD, 24°C; control cells of Fig 4C: 75 min, YPGal, 37°C); TAP-Spa2 on IgG beads; immunoblot.
Assay [2] shares this target. As to the kind of experiment: condition: only extracts of cells arrested in G1 phase or going through S phase; co-IP; yeast cell extract of cells arrested in G1 phase or released 30 min (S phase); TAP-Spa2 on IgG beads; immunoblot.
In assay [3] the target is Spa2-1-145 (S. cerevisiae) (UniProt P23201). As to the kind of experiment: two-hybrid; vectors pGADT7 and pGBKT7; growth at 30°C on SC medium lacking leucine, tryptophan and histidine (selective), 3-4 days.

Sequences of proteins named here, by UniProt entry; tags and fusion partners are left off. A change or cut given only in a name is not applied to a line headed by its entry. Residues count along the entry.
UniProt P23201: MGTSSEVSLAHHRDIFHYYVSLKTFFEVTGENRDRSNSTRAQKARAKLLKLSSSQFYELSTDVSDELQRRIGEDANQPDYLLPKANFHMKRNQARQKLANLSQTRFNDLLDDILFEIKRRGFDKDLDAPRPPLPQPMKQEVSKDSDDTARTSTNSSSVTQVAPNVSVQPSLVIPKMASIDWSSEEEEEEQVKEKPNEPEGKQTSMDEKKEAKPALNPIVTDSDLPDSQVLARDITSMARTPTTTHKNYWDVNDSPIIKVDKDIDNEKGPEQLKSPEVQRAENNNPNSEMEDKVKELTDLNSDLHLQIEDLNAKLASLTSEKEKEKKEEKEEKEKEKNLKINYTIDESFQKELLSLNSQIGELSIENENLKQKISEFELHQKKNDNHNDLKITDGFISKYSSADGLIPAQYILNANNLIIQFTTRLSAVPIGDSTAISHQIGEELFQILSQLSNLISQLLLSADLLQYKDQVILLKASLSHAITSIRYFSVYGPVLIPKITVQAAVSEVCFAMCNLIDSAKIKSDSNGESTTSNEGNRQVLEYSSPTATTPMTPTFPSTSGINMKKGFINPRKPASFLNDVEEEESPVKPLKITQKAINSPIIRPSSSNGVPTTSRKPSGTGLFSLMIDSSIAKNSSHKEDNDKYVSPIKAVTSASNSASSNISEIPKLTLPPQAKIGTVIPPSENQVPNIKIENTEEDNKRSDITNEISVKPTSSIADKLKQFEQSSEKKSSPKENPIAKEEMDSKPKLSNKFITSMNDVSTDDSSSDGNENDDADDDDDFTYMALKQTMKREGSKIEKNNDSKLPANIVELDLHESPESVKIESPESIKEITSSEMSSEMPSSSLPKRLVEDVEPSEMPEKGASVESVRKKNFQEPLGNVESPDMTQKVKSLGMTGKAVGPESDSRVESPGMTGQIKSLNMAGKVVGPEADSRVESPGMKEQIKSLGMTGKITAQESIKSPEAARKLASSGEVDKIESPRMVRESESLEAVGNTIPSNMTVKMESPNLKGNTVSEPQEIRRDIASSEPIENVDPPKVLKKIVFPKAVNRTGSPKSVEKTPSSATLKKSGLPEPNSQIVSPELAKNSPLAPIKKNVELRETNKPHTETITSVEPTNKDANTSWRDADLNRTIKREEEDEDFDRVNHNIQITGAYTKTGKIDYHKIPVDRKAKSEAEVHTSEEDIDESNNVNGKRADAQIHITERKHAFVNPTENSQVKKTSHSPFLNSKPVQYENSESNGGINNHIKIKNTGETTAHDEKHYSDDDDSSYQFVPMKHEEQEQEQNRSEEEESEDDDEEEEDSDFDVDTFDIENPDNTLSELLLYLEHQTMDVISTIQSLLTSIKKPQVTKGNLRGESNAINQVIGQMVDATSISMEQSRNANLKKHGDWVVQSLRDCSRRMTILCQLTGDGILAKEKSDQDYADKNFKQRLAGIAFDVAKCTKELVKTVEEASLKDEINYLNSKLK
Spa2-1-145: residues 1-145 of P23201
UniProt P08964: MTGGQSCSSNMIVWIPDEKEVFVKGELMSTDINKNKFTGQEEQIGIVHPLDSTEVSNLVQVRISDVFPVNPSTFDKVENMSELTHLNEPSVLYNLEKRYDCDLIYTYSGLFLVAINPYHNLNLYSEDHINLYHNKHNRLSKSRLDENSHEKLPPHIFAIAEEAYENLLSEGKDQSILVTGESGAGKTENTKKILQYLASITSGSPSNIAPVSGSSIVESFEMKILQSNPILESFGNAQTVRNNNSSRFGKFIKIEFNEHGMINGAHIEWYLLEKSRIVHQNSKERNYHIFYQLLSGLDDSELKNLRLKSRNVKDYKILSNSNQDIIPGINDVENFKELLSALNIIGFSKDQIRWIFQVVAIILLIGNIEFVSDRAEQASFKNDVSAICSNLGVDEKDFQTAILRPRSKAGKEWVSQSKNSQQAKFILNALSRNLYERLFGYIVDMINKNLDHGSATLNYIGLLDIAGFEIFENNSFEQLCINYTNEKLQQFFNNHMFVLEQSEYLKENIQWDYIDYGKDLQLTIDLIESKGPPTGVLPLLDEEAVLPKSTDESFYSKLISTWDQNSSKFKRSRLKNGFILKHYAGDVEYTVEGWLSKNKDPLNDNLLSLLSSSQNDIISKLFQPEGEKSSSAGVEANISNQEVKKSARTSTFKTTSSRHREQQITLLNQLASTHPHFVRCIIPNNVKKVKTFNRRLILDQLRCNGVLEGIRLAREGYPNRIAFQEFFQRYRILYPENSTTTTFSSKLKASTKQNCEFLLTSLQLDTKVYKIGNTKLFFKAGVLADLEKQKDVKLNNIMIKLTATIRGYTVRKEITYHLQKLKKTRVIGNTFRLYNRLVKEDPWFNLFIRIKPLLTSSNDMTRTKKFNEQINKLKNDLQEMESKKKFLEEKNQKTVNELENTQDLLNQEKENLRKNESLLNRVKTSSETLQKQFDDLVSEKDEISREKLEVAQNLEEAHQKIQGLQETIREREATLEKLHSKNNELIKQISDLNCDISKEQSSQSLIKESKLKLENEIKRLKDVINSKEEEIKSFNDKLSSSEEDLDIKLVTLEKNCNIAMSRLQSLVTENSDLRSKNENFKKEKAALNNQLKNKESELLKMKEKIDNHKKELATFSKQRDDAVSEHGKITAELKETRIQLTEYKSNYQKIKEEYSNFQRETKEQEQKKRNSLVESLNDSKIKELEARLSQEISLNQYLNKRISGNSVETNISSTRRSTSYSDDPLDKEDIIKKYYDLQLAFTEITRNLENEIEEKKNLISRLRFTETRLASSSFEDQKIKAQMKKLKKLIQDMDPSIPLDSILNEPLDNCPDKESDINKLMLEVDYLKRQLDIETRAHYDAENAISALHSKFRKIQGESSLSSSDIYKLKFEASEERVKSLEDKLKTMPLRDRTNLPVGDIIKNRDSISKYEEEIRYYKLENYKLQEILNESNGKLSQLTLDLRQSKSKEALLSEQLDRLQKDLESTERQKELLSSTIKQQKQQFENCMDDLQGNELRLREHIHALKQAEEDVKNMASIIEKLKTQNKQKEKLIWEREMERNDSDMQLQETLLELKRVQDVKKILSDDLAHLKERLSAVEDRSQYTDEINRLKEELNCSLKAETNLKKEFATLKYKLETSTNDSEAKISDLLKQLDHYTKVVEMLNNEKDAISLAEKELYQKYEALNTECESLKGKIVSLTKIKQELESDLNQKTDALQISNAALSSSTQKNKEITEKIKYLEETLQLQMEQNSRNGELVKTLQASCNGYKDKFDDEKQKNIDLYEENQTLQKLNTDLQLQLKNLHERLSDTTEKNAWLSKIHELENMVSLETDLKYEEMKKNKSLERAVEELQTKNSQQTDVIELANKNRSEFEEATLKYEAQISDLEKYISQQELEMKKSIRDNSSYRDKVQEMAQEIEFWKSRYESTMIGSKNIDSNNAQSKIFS

These are yes or no findings as the source states them, for the method shown. For part of these data: Binding seen in cells or lysates may run through a third protein. Some binding calls cover weakened binding; strength is not graded here. For part of these data: Sequences can lack the tags named with a protein.

Binding data for 11 molecules are collected here from PMC5895073, “Cell polarity protein Spa2 coordinates Chs2 incorporation at the division site in budding yeast” (PLoS Genetics, 2018).

Regarding Myo1-5FLAG (from UniProt P08964 1-1928), the binding entry in the assay with TAP-Spa2 (S. cerevisiae) [1] is “binds”; in the assay with TAP-Spa2 (S. cerevisiae) [2], “no binding”.

B1: Hof1 (protein, UniProt Q05080 1-669)
chain: MSYSYEACFWDPNDNGVNILLGHISQGIRSCDSMILFFKQRSELEKDYARRLGAITGKLDKDIGTNMDYGKLNETFNVVLSVEKARAQSHSKQSEILFRQIYTDTKAFAANLQARYTTLSGKIERLRMDKFNKKKGCEVLQKKLQDAQIRFRDLQLNENNMIGAKRVEHNKRELLKWESNSQEYKVQLDVLKQEYKASQKFWIHEWAQLSCELQEMENARISFLQSKLQQFATSSMETYILEQTKMDMLTNHLNSFTAADEISTFSKENGTGRLKHKTSKGDMNSSANWAQMSSISTTSKKTESYMDNIRKLSSQLKETENKRKLASIDKYEKPLPSPEVTMATQFRNSTPVIRNETKVVANPTLSLRSSPVQLQSNVDDSVLRQKPDKPRPIVGEEQLKPDEDSKNPDEKGLMVHKRNQSLSSPSESSSSNPTDFSHIKKRQSMESMTTSVSSMANSIDDSQRFAKSWNSSNRKRKSMSHLQVPSSASSRSDDGGRTPNSAHNLNEDDYNTRRDTSTSTILFKPPVAVRGTSRGHTHRQSMIMQDSSNPIEDALYEMERIQSSSKPGTKTGNIMDERGVVRDRGITVTLPIVTSEGFPVIEYAKAMYPLIGNEAPGLANFHKGDYLLITEIVNKDWYKGEVYDNDRIDRNHRIGLIPYNFIQLLHQGL
B1: the binding result with TAP-Spa2 (S. cerevisiae) [1] is “binds”; with TAP-Spa2 (S. cerevisiae) [2], “no binding”.

B2: Cyk3-1-74 (domain or fragment, UniProt Q07533 1-74)
chain: MATNLTSLKPPFKVKARYGWSGQTKGDLGFLEGDIMEVTRIAGSWFYGKLLRNKKCSGYFPHNFVILLEERLNS
For B2, the binding result in assay [3] is on record as “binds”.

B3: Cyk3-68-885 (domain or fragment, UniProt Q07533 68-885)
chain: LEERLNSSTENGRQPSKIVESFEKSNKVVIPPVPSRYSDERPRPKKKLSSSMPNSPKKPVDSLTKARKAKSKEMVNEKNIYNTQSSRHHNNSAPNLPLASHSKPQVRNFEESMNNPLPPLPPLPDLDNMRKTDKRAPKKSYSANDLHMARSSREYNYYKDNQKFYDGFIPEKRYSLEEDSISSGLFSNSQYLNDSACSSENSFALMSDFSATSAGSFARHKYAQSFSDSLQRSQNANGCSTKINDSQEFGDSNASSRNGKMGDILRKIIIPKRNTNIYSSSVSSPKSPKAYPKLPDIQNLNLSATPDEARDWIAVKCHLNRARTLTKYDKHPRYMRALEENRDLILHPQDSIYNGLNTNEVKGNTKPGLVDVELAELNIEYIDKMTWKRCIRDGTMTLDSWAQTTFSARYSTVLEKLRGIYIFCTEMFALTDDNGTSDFSAEPQNLEKILYRKHCTPYELTWLFKKLANSLGITCEIVIGFLKTPSAINWEFKYNHCWLRILVNKEWRFIDVILGNVTNPIHEFVNNRKIKKAENSYFLMAPLEMIYTHIPPREFEQHIVPSIDQLSALYLPLVFPSFFKNELKLYKFSTALSFLEDSEIYECSLEIPNDVEVFASVVIPTDNEEASSAYRNMELALTQIKKQKAESGRRIALIKAVLPPNVNKGSLYIHSGVRGTQTSIANIHPLSMMVPLTHKGSNMKYEFVIKIPSESIQKIELYIVEPQSRYLFVGNEYSFEVIQSPSDGIVYSSDEGPNQNRKQPMAIKSPSGRVHELVKSDPHFPYGTWKGSIKIKEPGVWSALVIADSGIGWSVFAEWLCV
Consider B3, for which, in assay [3], the binding result is given as “binds”.

B4: Hof1-200-272 (domain or fragment, UniProt Q05080 200-272)
chain: KFWIHEWAQLSCELQEMENARISFLQSKLQQFATSSMETYILEQTKMDMLTNHLNSFTAADEISTFSKENGTG
Turning to B4, in assay [3], the binding entry was “binds”.

B5: Chs2-9MYC (protein, UniProt P14180 1-963)
chain: MTRNPFMVEPSNGSPNRRGASNLSKFYANANSNSRWANPSEESLEDSYDQSNVFQGLPASPSRAALRYSPDRRHRTQFYRDSAHNSPVAPNRYAANLQESPKRAGEAVIHLSEGSNLYPRDNADLPVDPYHLSPQQQPSNNLFGSGRLYSQSSKYTMSTTSTTAPSLAEADDEKEKYLTSTTSYDDQSTIFSADTFNETKFELNHPTRQQYVRRANSESKRRMVSDLPPPSKKKALLKLDNPIPKGLLDTLPRRNSPEFTEMRYTACTVEPDDFLREGYTLRFAEMNRECQIAICITMYNEDKYSLARTIHSIMKNVAHLCKREKSHVWGPNGWKKVSVILISDGRAKVNQGSLDYLAALGVYQEDMAKASVNGDPVKAHIFELTTQVSINADLDYVSKDIVPVQLVFCLKEENKKKINSHRWLFNAFCPVLQPTVVTLVDVGTRLNNTAIYRLWKVFDMDSNVAGAAGQIKTMKGKWGLKLFNPLVASQNFEYKISNILDKPLESVFGYISVLPGALSAYRYRALKNHEDGTGPLRSYFLGETQEGRDHDVFTANMYLAEDRILCWELVAKRDAKWVLKYVKEATGETDVPEDVSEFISQRRRWLNGAMFAAIYAQLHFYQIWKTKHSVVRKFFLHVEFLYQFIQMLFSWFSIANFVLTFYYLAGSMNLVIKHGEALFIFFKYLIFCDLASLFIISMGNRPQGAKHLFITSMVILSICATYSLICGFVFAFKSLASGTESHKIFVDIVISLLSTYGLYFFSSLMYLDPWHMFTSSIQYFLTLPAFTCTLQIFAFCNTHDVSWGTKGSTQESKQLSKAIVVQGPDGKQIVETDWPQEVDKKFLEIKSRLKEPEFEESSGNEKQSKNDYYRDIRTRIVMIWMLSNLILIMSIIQVFTPQDTDNGYLIFILWSVAALAAFRVVGSMAFLFMKYLRIIVSYRNKVEGSGSWEVSKLDLPNVFHKKG
Turning to B5, the binding result with TAP-Spa2 (S. cerevisiae) [1] was “binds”; in the assay with TAP-Spa2 (S. cerevisiae) [2] it was “no binding”.

B6: SH3 domain of Hof1 (two-hybrid fragment) (domain or fragment, UniProt Q05080 599-667)
chain: PVIEYAKAMYPLIGNEAPGLANFHKGDYLLITEIVNKDWYKGEVYDNDRIDRNHRIGLIPYNFIQLLHQ
For the molecule B6, the binding result in assay [3] is “binds”.

B7: Cyk3-765-885 (domain or fragment, UniProt Q07533 765-885)
chain: NMKYEFVIKIPSESIQKIELYIVEPQSRYLFVGNEYSFEVIQSPSDGIVYSSDEGPNQNRKQPMAIKSPSGRVHELVKSDPHFPYGTWKGSIKIKEPGVWSALVIADSGIGWSVFAEWLCV
For the molecule B7, in assay [3], the binding entry is recorded as “binds”.

B8: full-length Cyk3 (protein, UniProt Q07533 1-885)
chain: MATNLTSLKPPFKVKARYGWSGQTKGDLGFLEGDIMEVTRIAGSWFYGKLLRNKKCSGYFPHNFVILLEERLNSSTENGRQPSKIVESFEKSNKVVIPPVPSRYSDERPRPKKKLSSSMPNSPKKPVDSLTKARKAKSKEMVNEKNIYNTQSSRHHNNSAPNLPLASHSKPQVRNFEESMNNPLPPLPPLPDLDNMRKTDKRAPKKSYSANDLHMARSSREYNYYKDNQKFYDGFIPEKRYSLEEDSISSGLFSNSQYLNDSACSSENSFALMSDFSATSAGSFARHKYAQSFSDSLQRSQNANGCSTKINDSQEFGDSNASSRNGKMGDILRKIIIPKRNTNIYSSSVSSPKSPKAYPKLPDIQNLNLSATPDEARDWIAVKCHLNRARTLTKYDKHPRYMRALEENRDLILHPQDSIYNGLNTNEVKGNTKPGLVDVELAELNIEYIDKMTWKRCIRDGTMTLDSWAQTTFSARYSTVLEKLRGIYIFCTEMFALTDDNGTSDFSAEPQNLEKILYRKHCTPYELTWLFKKLANSLGITCEIVIGFLKTPSAINWEFKYNHCWLRILVNKEWRFIDVILGNVTNPIHEFVNNRKIKKAENSYFLMAPLEMIYTHIPPREFEQHIVPSIDQLSALYLPLVFPSFFKNELKLYKFSTALSFLEDSEIYECSLEIPNDVEVFASVVIPTDNEEASSAYRNMELALTQIKKQKAESGRRIALIKAVLPPNVNKGSLYIHSGVRGTQTSIANIHPLSMMVPLTHKGSNMKYEFVIKIPSESIQKIELYIVEPQSRYLFVGNEYSFEVIQSPSDGIVYSSDEGPNQNRKQPMAIKSPSGRVHELVKSDPHFPYGTWKGSIKIKEPGVWSALVIADSGIGWSVFAEWLCV
In the case of B8, the binding result in assay [3] is listed as “binds”.

B9: Iqg1-6HA (protein, UniProt Q12280 1-1495)
chain: MTAYSGSPSKPGNNNSYLNRYVENLGTNVTPPLRPQSSSKINSSLNIASPSHLKTKTSASNSSATILSKKVESSVSKLKPSLPNKLVGKYTVDLSNYSKIELRYYEFLCRVSEVKIWIEAVIEEALPSEIELCVGDSLRNGVFLAKLTQRINPDLTTVIFPAGDKLQFKHTQNINAFFGLVEHVGVPDSFRFELQDLYNKKNIPQVFETLHILISMINKKWPGKTPALTNVSGQISFTKEEIAACKKAWPRIRDFKSLGTNINTAPASPEEPKEKRSGLIKDFNKFERPNIPVEEILITPRKNITDANCSDFSNTPSPYNEAPKMSNLDVVVEKRKFTPIEPSLLGPTPSLEYSPIKNKSLSYYSPTISKYLTYDTEFYTRRSRAREEDLNYYQTFKYSPSHYSPMRRERMTEEQFLEKVVQLQNICRGVNTRFNLYIQKRLLNLFEQDILRFQACLRGNKFRVLSSMYLPIRRAKIDVPHVEAIQSRIKGSRIRYKYDKLKFTLSRFSCTVELLQAYCRSKLLKTTVNTKLNDIEISHYPLTKLQSYMRASYVRKKVMSLNTKLNDERESIMKFSAIIRGNVVRCSEDAILSAVHDVHKENISKLQSLIRGIFTRSCLASIIYSLGKENCNIIQLSACIRGNAVRHKVQSLFAPENNLSETVHDLQGLVRGILVRYTLDLVDDIVEYNNLALFQAFSRGALVRESLDQKSSFYKRNVRSVIMIQSWIRKSLQRSAYLELLDCPNPSLWAVKKFVHLLNGTATIEEVQNQLESCQASLDSENMKKERLLKSIRQQLNINGVLDKFGLLKDKDHELGISDSTIPKSKYQKYEKLFYMLQVDPSYWKLLYLKEPEFVAKNVYMTFGTVNQRMNDRERSYFTRFVCEMLQNAINEAPSIESFLDNRSQFWQTILQDFLRRESPEFFSIIVPVLDYLSDPVVDFESDPYKIYQEIHGFSSPQHCSPVDDASTKNKFIDNLRCLWHAIEMVAEIYTRKVHTIPVEIRYLCTKIFCYAADKNIEEIDSLRAISSILVNVFVSEYLVNREYYGYKDSNVQKNNQKIDILMKSLATVFEIKNFDGFLDPLNQYANEIKPHIKDVLYNVLVDPEYEQEGDRLIYLDMVSPSPKLELLTEKVLEISGKFEEYLNEFPEADILHDILEKNLDNSSFPRSGRVTLELDASAYRFLVSDDKMRKIYDQVKRAFVYMMQIEDVDTNLYDLSISTILPQDEPNFANFLEQNPKIRDDPMIQKLKPLKYFTLKNVTLKKIHELESTGTFCSSDNKLQNFLNDIANTIKNPNYAIDYVTQEIYITKETLTKISEMNHSLDIELSRLKKHVDHTIKDFQKAKDFSPVHKSKFGNFKNAVKKVQGRERSELQGMKFKWNTKQLYERGVLKTIRGEKLAELTVKVFGSSGPKFPDIIFKISTSDGSRFGIQMIDKRKGPDKRYSDDVDSFSFKDLIKTQVEPKIETWKLFHSNVVVNNSQLLHLIVSFFYKRNAL
On to B9, for which the binding result with TAP-Spa2 (S. cerevisiae) [1] was “binds”; in the assay with TAP-Spa2 (S. cerevisiae) [2] it was “no binding”.

B10: Cyk3-475-764 (domain or fragment, UniProt Q07533 475-764)
chain: ARYSTVLEKLRGIYIFCTEMFALTDDNGTSDFSAEPQNLEKILYRKHCTPYELTWLFKKLANSLGITCEIVIGFLKTPSAINWEFKYNHCWLRILVNKEWRFIDVILGNVTNPIHEFVNNRKIKKAENSYFLMAPLEMIYTHIPPREFEQHIVPSIDQLSALYLPLVFPSFFKNELKLYKFSTALSFLEDSEIYECSLEIPNDVEVFASVVIPTDNEEASSAYRNMELALTQIKKQKAESGRRIALIKAVLPPNVNKGSLYIHSGVRGTQTSIANIHPLSMMVPLTHKGS
For the molecule B10, the binding entry in assay [3] was “binds”.
